The values that follow come from publication PMC10726135.

This is one part of the list. At the low end of the ranking the order means little. The protein was read in a cell extract, so binding may be indirect.

This assay concerns the target T1, HNF4alpha8 (COS-7 nuclear extract) (UniProt P41235-5).
T1 sequence: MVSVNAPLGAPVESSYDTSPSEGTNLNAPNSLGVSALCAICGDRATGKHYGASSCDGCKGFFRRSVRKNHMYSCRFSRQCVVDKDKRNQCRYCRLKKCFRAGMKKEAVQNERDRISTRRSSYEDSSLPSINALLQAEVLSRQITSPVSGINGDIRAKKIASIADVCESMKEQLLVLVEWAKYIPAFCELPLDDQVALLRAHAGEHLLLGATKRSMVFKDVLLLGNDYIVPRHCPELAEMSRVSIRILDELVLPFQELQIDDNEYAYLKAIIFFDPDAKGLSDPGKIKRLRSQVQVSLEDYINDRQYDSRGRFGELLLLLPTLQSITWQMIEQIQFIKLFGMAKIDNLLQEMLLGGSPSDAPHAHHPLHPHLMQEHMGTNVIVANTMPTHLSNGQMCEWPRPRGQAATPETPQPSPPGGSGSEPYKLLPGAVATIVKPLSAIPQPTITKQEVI
Put plainly: protein-binding microarray. Particulars: COS-7 nuclear extract on double-stranded Agilent 4x180k PBM; binding buffer, salt, pH and temperature not given; high values mean tight binding; double strand, one strand shown; sequences stand for … in …GCCTAGGGAGATTAGAGTATCGGTCGA
Turning to GCGTTTTTCTTTGTACTGCTTCCAAAACAT, the binding signal (log2 normalized intensity) came to 0.626.

In the case of TAGAAGGCTTAAGATAAGGGACATCAACAA, the binding signal (log2 normalized intensity) was -1.45.

As to TTCCATGCAGCAGCATCCAGCCCCAGGCTG, the binding signal (log2 normalized intensity) is -1.32.

With TCTGTACAAAACATTTGGTGTAAGCACTTG, the binding signal (log2 normalized intensity) is 0.477.

With ACCTACAGCTGGGGCCACCTTTTCAGCTTC, the binding signal (log2 normalized intensity) is -1.29.

As to TCCCTCCCCTGTGCAAACTTTTTCCTTTTC, the binding signal (log2 normalized intensity) was 1.89.

Take CCTAGAGTTACAGTCACTCCCTATCAACCA: the binding signal (log2 normalized intensity) was -1.34.

Consider GGAGGCTGGGGCCTCCTGGCTGGGCAGGCT, for which the binding signal (log2 normalized intensity) was -1.37.

As to TGCCTAGTGGAAGGTATGGAGCTAAACAAT, the binding signal (log2 normalized intensity) was -1.32.

In the case of AGCTTCAGGGATCAAATCCTAACATGCTGC, the binding signal (log2 normalized intensity) is -1.35.

In the case of ACCTTGACCCAAGAAATAAAAACAGCTGGG, the binding signal (log2 normalized intensity) was -1.32.

Consider TGCATCAAACAGCTTAGGGTTCAAACTCCA, for which the binding signal (log2 normalized intensity) came out at 4.54.

On to GAGAAAGAGACAGAGAGAGAGAGAGAATGA, for which the binding signal (log2 normalized intensity) is -1.16.

As for GGCAAACATTTGCGCAAACATAAAGGCAAA, the binding signal (log2 normalized intensity) is -1.35.

For the sequence TGTTCTTTACTTCCTTTTGTTCCTGCTCTA, the binding signal (log2 normalized intensity) came to 1.67.

Take ATCACTGAATCGAGGCTATTCTGTAACACA: the binding signal (log2 normalized intensity) was -1.27.

For the sequence ACACACACATACACACACACACACACACAT, the binding signal (log2 normalized intensity) is -1.31.

In the case of ATCTTATCTAGTTTCCTAGCTCACTGATAA, the binding signal (log2 normalized intensity) was -1.34.

For the sequence AGGGGGAATGCCAACAGGTCAGGGAGTAGG, the binding signal (log2 normalized intensity) was -1.43.

Consider CAAAGGTCATGTTTTCAAACAATGAGAGGC, for which the binding signal (log2 normalized intensity) is 3.64.

For GATAAAGGAACAGGCCCCAGGGACTTTGGC, the binding signal (log2 normalized intensity) amounted to 2.06.

For the sequence TTCTACAGTGTTTACCGGATGAAAAGTGTT, the binding signal (log2 normalized intensity) turned out to be 0.883.

AGCCCTGGTTTATCTGTTGTCAAACCCACA: the binding signal (log2 normalized intensity) amounted to 0.589.

TATGTGATCAGATGTGGACAATCATTGTGC: the binding signal (log2 normalized intensity) stood at 1.4.

As to GCAAAGTTCACCAGGAAGCAAGACAATGCA, the binding signal (log2 normalized intensity) is -1.43.

For TTTGGAGCCGGTGTCAGTTTCCACTCTGCC, the binding signal (log2 normalized intensity) was -1.46.

For AATGTAAACATCAAGGAAGAGAACTCCCTA, the binding signal (log2 normalized intensity) was -1.32.

Regarding AGGGACTTTGATCTTCTTACCCCTTTGCTG, the binding signal (log2 normalized intensity) was 3.3.

In the case of AAATAAGAATGACCAGGAGTTTGGGATCAG, the binding signal (log2 normalized intensity) is -1.26.

For the sequence AAAGAACCATGAGAGGGTTAAAAACCAGAA, the binding signal (log2 normalized intensity) was -1.07.

For the sequence GCAAAGGTTAGCAAGGGCCCCCACTAGAGA, the binding signal (log2 normalized intensity) was found to be 1.32.

Regarding TTTCAAGAATCTAATCAGGCCTCCCTCCCT, the binding signal (log2 normalized intensity) is 3.78.

For ATGTTCCCACGAAACCCTAAACCTGCAAAC, the binding signal (log2 normalized intensity) was -1.36.

Regarding TGTTATCAGTTAATTGCATTCTTTGATGTG, the binding signal (log2 normalized intensity) came to 1.54.

On to GACTAGCCACAATAGGCCCTCCCAGCCTAT, for which the binding signal (log2 normalized intensity) is -1.37.

Take GGTTGTGTTTGCAGTGAGTAACCTTGAGGA: the binding signal (log2 normalized intensity) stood at 1.72.

With AAGGAAGAGGGAAGACCAAAGGCCAAAGAG, the binding signal (log2 normalized intensity) was -1.31.

In the case of AAAGGAATGCGCCTGAACTGACTGCATTCC, the binding signal (log2 normalized intensity) was -1.22.

For AAATGCAGGTGAGAGGCCTCTAAGCATAAC, the binding signal (log2 normalized intensity) is -1.12.

CCTTCCCTTTCATGTTGAACGTCTTCAGAA: the binding signal (log2 normalized intensity) turned out to be 1.35.

For the sequence CTGCTTCGGCCTTTGACCTCGTGATAACGA, the binding signal (log2 normalized intensity) was found to be 5.83.

As to GCAAGACTTTGGCCCTGCAGACTTTGCCTC, the binding signal (log2 normalized intensity) was 3.9.

In the case of GATGAAGGTTATTCTTTCCCCTCCCTTCCA, the binding signal (log2 normalized intensity) was 3.35.

As for GCTGAGAGATTCCTCTGCACAATAAAACTT, the binding signal (log2 normalized intensity) was -1.31.

With AGTTCAGGAGGGAGGAGCATTTCACAGAAA, the binding signal (log2 normalized intensity) is -1.2.

For the sequence CTGCCTTGGAGGTGAGGGTTACAGGTGGAC, the binding signal (log2 normalized intensity) is 1.59.

For TGGAAACAACTGTGCAGGTGACAGAATTCC, the binding signal (log2 normalized intensity) was -1.29.

As for AATCTCTCATCTGCCTTGTGATTTCCAAAA, the binding signal (log2 normalized intensity) worked out at 0.701.

On to ATTAATATATTCATAACACTTGTATGACCT, for which the binding signal (log2 normalized intensity) was determined as 3.27.

On to GAAACATCCACATGTGGGTCCAAAGAACAT, for which the binding signal (log2 normalized intensity) worked out at 3.82.

For the sequence CACTGCAGGATTGGAGATCTGAACTCAAGC, the binding signal (log2 normalized intensity) was determined as 0.997.

For GAGTTAATGCTGGAGTTAAAGCTTTGAGGA, the binding signal (log2 normalized intensity) is -1.29.

As to TTTCCCTGGTCGACCTCCCCGTCACCCTCC, the binding signal (log2 normalized intensity) was found to be 4.36.

As for TCGCCTCCACCTGCACCATTCTTGTCCTTT, the binding signal (log2 normalized intensity) was found to be 2.66.

As to CTACCTTTGGACTTCTCATTACATGGGACA, the binding signal (log2 normalized intensity) worked out at 3.1.

CACAGGATTTAAAGAATTCCAGACAATCTG: the binding signal (log2 normalized intensity) is -1.31.

For GCTTATGCATGGGAGATCTTCAGTAAGAGG, the binding signal (log2 normalized intensity) came out at 0.414.

In the case of ACCCCTCCACTGGACAGCAGCTACATAAGG, the binding signal (log2 normalized intensity) came out at 1.83.

In the case of CCTGGATAAGCCAGATAATTTGTGCAACAT, the binding signal (log2 normalized intensity) is -0.991.

As for TAGAAAAGAGTTAAAAAAAAAAAAAACTAT, the binding signal (log2 normalized intensity) was -1.27.

Take AGGTGACTTGCCCAGACACACCTGCAATGG: the binding signal (log2 normalized intensity) was -1.16.

With AACTCTCAGTTTGGCTCTTATGTCCCTCCT, the binding signal (log2 normalized intensity) stood at 0.947.

Turning to AGCCAAGTTTTGCAACATACTGAAAAAGGG, the binding signal (log2 normalized intensity) was -1.3.

On to GCAGAAACAAATACAGACACACCTAGGGAG, for which the binding signal (log2 normalized intensity) is -1.46.

On to AAACCAACACCAGCAACCGCCTACCTTTGG, for which the binding signal (log2 normalized intensity) was -1.37.

Regarding TGGCCTGGTTCCTTCTCAGTGACAAAAACA, the binding signal (log2 normalized intensity) was 0.68.

Regarding CTTTGCCCCCAGCCTCTCACAGTAGCCCAG, the binding signal (log2 normalized intensity) was 4.72.

For AGAGGCCTGGGAATGCCTAGGGGGAAGCCC, the binding signal (log2 normalized intensity) was -1.35.

In the case of CCTTTGAACCAGAGAAGATTCCAGAGGGAG, the binding signal (log2 normalized intensity) is -1.16.

GACTCAAATCCAAGCTGGCTGGCTTTAGAG: the binding signal (log2 normalized intensity) was -1.33.

As to AGTGCCAGAGCTGTGAAGACTGCAGCAAAG, the binding signal (log2 normalized intensity) was -1.17.

Take GTAACTCTGGGTCTGAGACCAAAGTCCAGA: the binding signal (log2 normalized intensity) was determined as 6.64.

Turning to TGTCCTGAGTTATTGGAAGAATGGAATTGC, the binding signal (log2 normalized intensity) worked out at 1.27.
